# Measured values published in PubChem BioAssay AID1347417 (National Center for Advancing Translational Sciences (NCATS), 2020).
# About 5,300 (4.4%) of roughly 120,000 compounds were called active. This list was built around the results that the source calls inconclusive (neither active nor inactive); the mix of calls is not that of the screen. Calls follow the shape of the dose curve; as a rule, active = well fitted inhibition curve with a large enough effect; inconclusive = small, poorly fitted or top-dose-only effect; inactive = no such curve, though single readings can be large or run the other way. Where the call is inconclusive, the potency comes from a doubtful curve fit.
# Assay: qHTS Primary assay for Inhibitors of Plasmodium falciparum Dd2 growth in vitro; also: nearly all actives have a fitted effect of over 65% in size;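 as to activity, negative = inhibition: plate controls were DMSO vehicle for no effect and reference drug for full effect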
# Details: P. falciparum Dd2 growth, SYBR Green, 72 h; activity, negative = inhibition: at 28.9 µM (top of the series) unless noted; series mostly up to 28.9 µM
# How it was run: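 Readout: SYBR Green fluorescence, 485 nm excitation, 535 nm emission, after ~16 h lysis at 37C. Before that, Dd2-infected red cells (2.5% hematocrit) grew 72 h with compound, 29 uM top final concentration.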
# Potency is read from the fitted curve at half-maximal effect; tags tell the direction and shape of the fitted curve.
SMILES,Potency,"activity, negative = inhibition"
CC1=C(C(=O)Nc2ccc(F)cc2F)C2(CCCCCC2)OC1=O,"inconclusive: 12.6 µM [inhibitor, single point]",
CC(C)c1noc([C@@H]2C[C@H](NS(=O)(=O)c3ccc(C#N)cc3)CN2C)n1,inactive,
O=C(O)[C@@H]1CN(C(=O)CCc2ccc(=O)[nH]n2)C[C@H]1C1CC1,inactive,
O=C(CN1C(=O)C2(SCC(=O)N2c2ccc(F)c(F)c2)c2ccccc21)Nc1ccccc1F (stereo not drawn),active: 12.6 µM,
CCOC(=O)c1ccc(N2C(=O)c3n[nH]c(-c4ccco4)c3C2c2ccc(F)cc2)cc1 (stereo not drawn),"inconclusive: 11.2 µM [inhibitor, single point]",
O=C(NC1CCCCC1)c1cc2n(n1)CC(c1ccc3c(c1)OCO3)OC2 (stereo not drawn),inactive,
O=C(CC1CCCC1)N1CCC(OC2CCN(Cc3ccccc3)CC2)CC1,"inconclusive: 8.91 µM [inhibitor, partial curve, poor fit]",
CC(C)OCc1cc(CN2CCN(c3ccccc3)CC2)c(O)c2ncccc12,active: 2.51 µM,
CN(C)[C@@H]1CN(Cc2cc(F)c(F)c(F)c2)CC[C@@H]1CNC(=O)C1CC1,"inconclusive: 2.51 µM [inhibitor, partial curve, poor fit]",
CCO[C@H]1CN(Cc2ccc(OC)c(OCc3cccc(F)c3)c2)C[C@@H]1O,active: 12.6 µM,
CCOc1ccc(CCNC(=O)c2cnc3sc(N4CCCCCC4)nn3c2=O)cc1,"inconclusive: 10 µM [inhibitor, single point]",
COc1cc(OC)c(OC)cc1CN1CCc2nc(N3CCN(C)CC3)[nH]c(=O)c2CC1,,inactive: 28.9% [at 5.79 µM]
O=C(NCCC1=CCCCC1)c1ccc2c(c1)N(Cc1cccc(Cl)c1)C(=O)c1ccccc1S2(=O)=O,"inconclusive: 11.2 µM [inhibitor, single point]",
CC(C)CCNC(=O)c1cnc2n1CCN(Cc1cccc(OC(F)(F)F)c1)CC2,"inconclusive: 15.8 µM [inhibitor, single point]",
O=C1N(Cc2ccc(F)cc2)CCCC12CCN(c1nc3ccccc3o1)C2 (stereo not drawn),inactive,
O=C(Cn1ncc2c3ccccc3n(Cc3ccccc3F)c2c1=O)N1CCCCC1,"inconclusive: 10 µM [inhibitor, single point]",
COc1cccc(NC(=O)Cn2c(N3CCN(c4ccccc4)CC3)nc(C)cc2=O)c1,"inconclusive: 2.24 µM [inhibitor, partial curve]",
CCOc1ccc(CCNC(=O)c2[nH]c3cc(OC)ccc3c2Sc2ccccc2)cc1OCC,"inconclusive: 17.8 µM [inhibitor, single point]",
